In all, about 3,200 compounds went through this assay and about 110 (3.4%) showed an effect of 50% or more. The list shows a part of the results.
Each compound was assayed on T1, V. cholerae SAD30. Details: relative growth, OD600, LB; 25 µM; inhibitor.
T1 construct: SAD30
Parameters: species or system S. aureus MSSA476 (TSB) or V. cholerae SAD30 (LB); 384-well bacterial growth screen at 25 uM, OD600 relative to DMSO control

SMILES	% of control remaining [%]
COc1ccc(NC(=O)CCl)cc1S(=O)(=O)N1CCCCC1 [4-B08, 2-chloro-N-[4-methoxy-3-(piperidine-1-sulfonyl)phenyl]acetamide]	110.244
C=CC(=O)NC(Cn1ccccc1=O)c1ccccc1 (stereo not shown) [2-B21, N-[2-(2-oxo-1,2-dihydropyridin-1-yl)-1-phenylethyl]prop-2-enamide]	101.776
C=CC(=O)N1CCC(C(=O)N(C)C(C)Cc2ccc(C)cc2)CC1 (stereo not shown) [2-F14, N-methyl-N-[1-(4-methylphenyl)propan-2-yl]-1-(prop-2-enoyl)piperidine-4-carboxamide]	87.108
COc1ccc(NC(=O)C(C#N)=Cc2ccc(-c3ccccc3)cc2)cc1 [8-D11, 3-{[1,1'-biphenyl]-4-yl}-2-cyano-N-(4-methoxyphenyl)prop-2-enamide]	76.7505
O=C(CCl)NCCc1cnn(-c2ccccc2)c1 [6-G22, 2-chloro-N-[2-(1-phenyl-1H-pyrazol-4-yl)ethyl]acetamide]	109.053
C=CC(=O)N1CCc2cc(C(N)=O)ccc21 [1-P03, 1-(prop-2-enoyl)-2,3-dihydro-1H-indole-5-carboxamide]	106.876
Cc1cc(C(=O)C(C)Cl)c(C)n1-c1ccccc1 (stereo not shown) [10-A06, 2-chloro-1-(2,5-dimethyl-1-phenyl-1H-pyrrol-3-yl)propan-1-one]	102.24
CC(C)(C)c1ccc(CC(=O)CCl)cc1 [10-G19, 1-(4-tert-butylphenyl)-3-chloropropan-2-one]	116.579
C=CC(=O)N1CCC(C(=O)NCc2cnn(-c3ccccc3)c2)CC1 [3-O14, N-[(1-phenyl-1H-pyrazol-4-yl)methyl]-1-(prop-2-enoyl)piperidine-4-carboxamide]	100.206
CC1CSc2ccc(Cl)cc2N(C(=O)CCl)C1 (stereo not shown) [5-J05, 2-chloro-1-(7-chloro-3-methyl-2,3,4,5-tetrahydro-1,5-benzothiazepin-5-yl)ethan-1-one]	108.942
CCN(Cc1ccc(C(F)(F)F)cc1)C(=O)CCl [7-H20, 2-chloro-N-ethyl-N-{[4-(trifluoromethyl)phenyl]methyl}acetamide]	79.4317
CSc1nsc(NC(=O)CCl)n1 [4-C13, 2-chloro-N-[3-(methylsulfanyl)-1,2,4-thiadiazol-5-yl]acetamide]	97.3043
Cc1ccc(F)c(N2CCC(NC(=O)CCl)CC2)c1 [5-M14, 2-chloro-N-[1-(2-fluoro-5-methylphenyl)piperidin-4-yl]acetamide]	83.2195
C=CC(=O)N1CCC(C(=O)NC(C)(C)CSC)CC1 [3-M14, N-[2-methyl-1-(methylsulfanyl)propan-2-yl]-1-(prop-2-enoyl)piperidine-4-carboxamide]	97.3828
CCN(CC)S(=O)(=O)c1cc(NC(=O)CCl)ccc1C [4-E09, 2-chloro-N-[3-(diethylsulfamoyl)-4-methylphenyl]acetamide]	97.6493
C=CC(=O)NC1(c2ccccc2)CCOC1 (stereo not shown) [3-P04, N-(3-phenyloxolan-3-yl)prop-2-enamide]	116.262
CC(Cc1c[nH]c2cc(F)c(F)cc12)NC(=O)CCl (stereo not shown) [5-I07, 2-chloro-N-[1-(5,6-difluoro-1H-indol-3-yl)propan-2-yl]acetamide]	96.8372
CC(Cl)C(=O)N1CCCCC1C1CCCN(C(=O)C(F)(F)F)C1 (stereo not shown) [6-F16, 2-chloro-1-[1'-(2,2,2-trifluoroacetyl)-[2,3'-bipiperidin]-1-yl]propan-1-one]	87.8188
O=C(CCl)Nc1cc(S(=O)(=O)N2CCCCC2)ccc1Cl [4-F09, 2-chloro-N-[2-chloro-5-(piperidine-1-sulfonyl)phenyl]acetamide]	100.755
O=C(CCl)C1CC12CCCCC2 (stereo not shown) [10-A19, 2-chloro-1-{spiro[2.5]octan-1-yl}ethan-1-one]	104.111
C=CC(=O)Nc1ccc(C(N)=O)cc1C [1-P06, 3-methyl-4-(prop-2-enamido)benzamide]	113.592
O=C(CCl)N1CCN(C(=O)CC(F)(F)F)CC1 [5-A08, 1-[4-(2-chloroacetyl)piperazin-1-yl]-3,3,3-trifluoropropan-1-one]	104.403
Cc1ccc(C=C(C#N)C(=O)NCCc2ccccc2)o1 [8-H12, 2-cyano-3-(5-methylfuran-2-yl)-N-(2-phenylethyl)prop-2-enamide]	59.7553

SMILES	% of control remaining [%]
CN(C(=O)CCl)C(c1ccccc1)c1ccccc1 [5-H06, 2-chloro-N-(diphenylmethyl)-N-methylacetamide]	97.5097
CC(Cl)C(=O)Nc1ccccc1-c1ccccc1 (stereo not shown) [4-G14, N-{[1,1'-biphenyl]-2-yl}-2-chloropropanamide]	91.611
C=CC(=O)NCCc1cscn1 [2-G08, N-[2-(1,3-thiazol-4-yl)ethyl]prop-2-enamide]	90.0415
c1nc(N2CCSSCC2)c2c3c(sc2n1)CCCC3 [10-M22, 3-(1,2,5-dithiazepan-5-yl)-8-thia-4,6-diazatricyclo[7.4.0.0,2,7]trideca-1(9),2,4,6-tetraene]	79.3298
CCN(CC)S(=O)(=O)c1ccc(Cl)c(NC(=O)C(C)Cl)c1 (stereo not shown) [6-C20, 2-chloro-N-[2-chloro-5-(diethylsulfamoyl)phenyl]propanamide]	83.5719
Cc1ccc(-n2c(C)cc(C=C(C#N)C(=O)N3CCCCC3)c2C)cc1 [9-O21, 3-[2,5-dimethyl-1-(4-methylphenyl)-1H-pyrrol-3-yl]-2-(piperidine-1-carbonyl)prop-2-enenitrile]	81.1013
NC(=O)CSc1ccccc1NC(=O)CCl [4-A15, 2-{[2-(2-chloroacetamido)phenyl]sulfanyl}acetamide]	103.343
O=C(CCl)NCCc1ccn(C2CCCC2)n1 [7-L20, 2-chloro-N-[2-(1-cyclopentyl-1H-pyrazol-3-yl)ethyl]acetamide]	84.1897
N#CC(=Cc1ccc([N+](=O)[O-])cc1)C(=O)Nc1cccc2ncccc12 [9-K21, 2-cyano-3-(4-nitrophenyl)-N-(quinolin-5-yl)prop-2-enamide]	92.93
C=CC(=O)N1CCN(C(C)c2nc(C)no2)CC1 (stereo not shown) [3-M11, 1-{4-[1-(3-methyl-1,2,4-oxadiazol-5-yl)ethyl]piperazin-1-yl}prop-2-en-1-one]	96.1478
C=CC(=O)Nc1cnn(C2CCCC2)c1 [3-O21, N-(1-cyclopentyl-1H-pyrazol-4-yl)prop-2-enamide]	106.734
CCCn1c(C)cc(C=C(C#N)C(=O)Nc2ccccc2)c1C [8-H05, 2-cyano-3-(2,5-dimethyl-1-propyl-1H-pyrrol-3-yl)-N-phenylprop-2-enamide]	82.3249
N#CC(=Cc1cccc(F)c1F)C(N)=O [9-A03, 2-cyano-3-(2,3-difluorophenyl)prop-2-enamide]	97.1448
CC(Cl)C(=O)NC(CC1CCCCC1)c1ncccn1 (stereo not shown) [7-H13, 2-chloro-N-[2-cyclohexyl-1-(pyrimidin-2-yl)ethyl]propanamide]	75.3345
CCn1cc(C2CN(C(=O)C(C)Cl)CCO2)cn1 (stereo not shown) [7-G08, 2-chloro-1-[2-(1-ethyl-1H-pyrazol-4-yl)morpholin-4-yl]propan-1-one]	80.6212
C=CC(=O)NC(c1ccc(F)cc1)c1nccn1C (stereo not shown) [2-N09, N-[(4-fluorophenyl)(1-methyl-1H-imidazol-2-yl)methyl]prop-2-enamide]	90.1959
COc1ccc(CN2CCN(C(=O)CCl)CC2)cc1.Cl [5-A15, 2-chloro-1-{4-[(4-methoxyphenyl)methyl]piperazin-1-yl}ethan-1-one hydrochloride]	102.721
C=CC(=O)N1CCC(C(=O)N[C@H]2CCO[C@H](c3ccccn3)C2)CC1 (racemic) [2-G15, rac-1-(prop-2-enoyl)-N-[(2R,4R)-2-(pyridin-2-yl)oxan-4-yl]piperidine-4-carboxamide]	87.88
Cn1ccnc1C(=O)CCl [10-C15, 2-chloro-1-(1-methyl-1H-imidazol-2-yl)ethan-1-one]	101.461
CC1=C(c2ccco2)CN(C(=O)C(C)Cl)CC1 (stereo not shown) [6-D15, 2-chloro-1-[5-(furan-2-yl)-4-methyl-1,2,3,6-tetrahydropyridin-1-yl]propan-1-one]	84.937
C=CC(=O)NCCCc1conc1C [2-N13, N-[3-(3-methyl-1,2-oxazol-4-yl)propyl]prop-2-enamide]	87.88
C=CC(=O)NCc1cccc(C(C)(F)F)c1 [3-O22, N-{[3-(1,1-difluoroethyl)phenyl]methyl}prop-2-enamide]	103.911
CC(Cl)C(=O)Nc1ccc2c(c1)ncn2-c1ccccc1 (stereo not shown) [6-N13, 2-chloro-N-(1-phenyl-1H-1,3-benzodiazol-5-yl)propanamide]	85.2403

From paper PMC11995724, “Antibiotic target discovery by integrated phenotypic and activity-based profiling of electrophilic fragments” (Cell chemical biology, 2025)
